Assay results from a collection of fitness landscapes (doi:10.1016/j.celrep.2020.107928).
The full ranking holds about 81,000 sequences; the median of “one-hybrid fitness for binding NBS DNA” is about -0.1, and the highest 2% start at about 0.36. Some of the results follow.

B1: Caulobacter ParB omega fusion; a variant is named by its letters at X, in order, B8GW30 (parent)
chain: MESVVVGEPGMSEGRRGLGRGLSALLGEVDAAPAQAPGEQLGGSREAPIEILQRNPDQPRRTFREEDLEDLSNSIREKGVLQPILVRPSPDTAGEYQIVAGERAWRAAQRAGLKTVPIMVRELDDLAVLEIGIIENVQRADLNVLEEALSYKVLMEKFERTQENIAQTIGKSXSHVANXMRLLXLPDEVQSYLVSGELTAXHARAIAAAADPVALAKQIIEGGLSVRETEALARKAPNLSAGKSKGGRPPRVKDTDTQALESDLSSVLGLDVSIDHRGSTGTLTITYATLEQLDDLCNRLTRGI

Variants of: B1
Test: one-hybrid fitness for binding NBS DNA (the Noc-binding site; scaled: cognate 1, non-cognate 0); higher = stronger binding
Details: with NBS DNA site
Procedure, shortened: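 Pre- and post-selection plasmids were Illumina-sequenced, three replicate libraries were pooled, and any variant with under 10 reads was removed. The libraries were Caulobacter ParB with four specificity codons randomised, selected in E. coli USO through a HIS3 reporter whose site is 19 bp from the promoter. Cells grew 48 hours at 37°C on M9 without histidine, with 0.1 mM IPTG and 5 mM 3-AT. Fitness is the log change in variant-to-wild-type read ratio, rescaled against cognate and non-cognate.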

Row | Variant | one-hybrid fitness for binding NBS DNA
1 | APMT | ≤ 0.2
2 | LTTF | ≤ 0.2
3 | KANS | ≤ 0.2
4 | WVSP | ≤ 0.2
5 | PTLY | ≤ 0.2
6 | DSLT | ≤ 0.2
7 | VYVI | ≤ 0.2
8 | CHVT | ≤ 0.2
9 | LYHG | ≤ 0.2
10 | NRYR | ≤ 0.2
11 | KTHI | ≤ 0.2
12 | HTCL | ≤ 0.2
13 | QRYN | 0.319
14 | NVPG | ≤ 0.2
15 | YGHL | ≤ 0.2
16 | LPYA | ≤ 0.2
17 | RSFL | ≤ 0.2
18 | EVKF | ≤ 0.2
19 | QHDI | ≤ 0.2
20 | FQKG | ≤ 0.2
21 | TDNT | ≤ 0.2
22 | SWKC | ≤ 0.2
23 | TAKI | ≤ 0.2
24 | SYRE | ≤ 0.2
25 | NLLK | ≤ 0.2

Row | Variant | one-hybrid fitness for binding NBS DNA
26 | WDTL | ≤ 0.2
27 | MQEG | ≤ 0.2
28 | CNRS | ≤ 0.2
29 | KIWY | ≤ 0.2
30 | VTRD | ≤ 0.2
31 | HHQS | ≤ 0.2
32 | ANPA | ≤ 0.2
33 | CRPR | ≤ 0.2
34 | QMNT | 0.52
35 | LESS | ≤ 0.2
36 | PNAK | ≤ 0.2
37 | PNTQ | ≤ 0.2
38 | VFVS | ≤ 0.2
39 | QPTL | ≤ 0.2
40 | MHWT | ≤ 0.2
41 | GWWS | ≤ 0.2
42 | EWRV | ≤ 0.2
43 | NYNR | ≤ 0.2
44 | HLVG | ≤ 0.2
45 | FMYR | ≤ 0.2
46 | SRHV | ≤ 0.2
47 | GDNL | ≤ 0.2
48 | IALV | ≤ 0.2
49 | YQWR | ≤ 0.2
50 | HYMR | ≤ 0.2

Row | Variant | one-hybrid fitness for binding NBS DNA
51 | TKSH | ≤ 0.2
52 | LTTL | ≤ 0.2
53 | SDPV | ≤ 0.2
54 | IGFC | ≤ 0.2
55 | MRDA | ≤ 0.2
56 | LKNC | ≤ 0.2
57 | PLRN | ≤ 0.2
58 | NSYG | ≤ 0.2
59 | RLSA | ≤ 0.2
60 | WHGE | ≤ 0.2
61 | LVGT | ≤ 0.2
62 | SNCY | ≤ 0.2
63 | FRWS | ≤ 0.2
64 | KDNT | ≤ 0.2
65 | WQTC | ≤ 0.2
66 | NTAF | ≤ 0.2
67 | RNHQ | ≤ 0.2
68 | TISK | ≤ 0.2
69 | RYEV | ≤ 0.2
70 | MPPP | ≤ 0.2
71 | PYGT | ≤ 0.2
72 | GIFT | ≤ 0.2
73 | QTSV | 0.235
74 | YEVL | ≤ 0.2
75 | CTAT | ≤ 0.2

Row | Variant | one-hybrid fitness for binding NBS DNA
76 | NVHG | ≤ 0.2
77 | QNAM | ≤ 0.2
78 | GGWL | ≤ 0.2
79 | RMRF | ≤ 0.2
80 | THKC | ≤ 0.2
81 | RNDE | ≤ 0.2
82 | LAQI | ≤ 0.2
83 | AQVT | ≤ 0.2
84 | YPVC | ≤ 0.2
85 | PMYV | ≤ 0.2
86 | SCAD | ≤ 0.2
87 | TRLQ | ≤ 0.2
88 | YMKV | ≤ 0.2
89 | PLEN | ≤ 0.2
90 | QYLH | ≤ 0.2
91 | NKII | ≤ 0.2
92 | RYWY | ≤ 0.2
93 | RIFH | ≤ 0.2
94 | VEAV | ≤ 0.2
95 | VRMV | ≤ 0.2
96 | WWYR | ≤ 0.2
97 | SATR | ≤ 0.2
98 | YSHK | ≤ 0.2
99 | RWLW | ≤ 0.2
100 | VRPT | ≤ 0.2

Row | Variant | one-hybrid fitness for binding NBS DNA
101 | MPTF | ≤ 0.2
102 | RHGI | ≤ 0.2
103 | YHQG | ≤ 0.2
104 | QIRS | 0.539
105 | CSIG | ≤ 0.2
106 | CKGT | ≤ 0.2
107 | LKWF | ≤ 0.2
108 | NDRA | ≤ 0.2
109 | RQPL | ≤ 0.2
110 | NVTR | ≤ 0.2
111 | DKKM | ≤ 0.2
112 | MQLC | ≤ 0.2
113 | HCRC | ≤ 0.2
114 | SPLQ | ≤ 0.2
115 | QRYF | 0.227
116 | YLNN | ≤ 0.2
117 | PIMV | ≤ 0.2
118 | YLKC | ≤ 0.2
119 | AAYH | ≤ 0.2
120 | KSRL | ≤ 0.2
121 | APTN | ≤ 0.2
122 | LLPP | ≤ 0.2
123 | VLRI | ≤ 0.2
124 | TIVL | ≤ 0.2
125 | EDQR | ≤ 0.2

Row | Variant | one-hybrid fitness for binding NBS DNA
126 | PKPW | ≤ 0.2
127 | ENER | ≤ 0.2
128 | HMKN | ≤ 0.2
129 | AGIG | ≤ 0.2
130 | RIAW | ≤ 0.2
131 | RWCA | ≤ 0.2
132 | MAAA | ≤ 0.2
133 | TNNG | ≤ 0.2
134 | IFPP | ≤ 0.2
135 | QTTI | ≤ 0.2
136 | HSTY | ≤ 0.2
137 | FTLS | ≤ 0.2
138 | PTTQ | ≤ 0.2
139 | WLPS | ≤ 0.2
140 | PMTC | ≤ 0.2
141 | GRRY | ≤ 0.2
142 | NTGW | ≤ 0.2
143 | KHNV | ≤ 0.2
144 | RAKI | ≤ 0.2
145 | SSCL | ≤ 0.2
146 | APMV | ≤ 0.2
147 | SWSK | ≤ 0.2
148 | AIKT | ≤ 0.2
149 | QARV | 0.376
150 | HCAT | ≤ 0.2

Row | Variant | one-hybrid fitness for binding NBS DNA
151 | NQLM | ≤ 0.2
152 | LHRR | ≤ 0.2
153 | QRFE | ≤ 0.2
154 | QMQT | 0.392
155 | SQCT | ≤ 0.2
156 | HKRP | ≤ 0.2
157 | TRWG | ≤ 0.2
158 | FMGT | ≤ 0.2
159 | RHCE | ≤ 0.2
160 | LYQC | ≤ 0.2
161 | KRYW | ≤ 0.2
162 | CFKS | ≤ 0.2
163 | AYAR | ≤ 0.2
164 | QMFY | ≤ 0.2
165 | WHYV | ≤ 0.2
166 | CKVS | ≤ 0.2
167 | LWWG | ≤ 0.2
168 | KQWT | ≤ 0.2
169 | YTDG | ≤ 0.2
170 | CLYT | ≤ 0.2
171 | YFCV | ≤ 0.2
172 | NRDG | ≤ 0.2
173 | SVAP | ≤ 0.2
174 | GMCY | ≤ 0.2
175 | KPLC | ≤ 0.2

Row | Variant | one-hybrid fitness for binding NBS DNA
176 | FAKL | ≤ 0.2
177 | RSYF | ≤ 0.2
178 | DPPC | ≤ 0.2
179 | TCLY | ≤ 0.2
180 | TMTR | ≤ 0.2
181 | QWMI | ≤ 0.2
182 | NGTL | ≤ 0.2
183 | TRRL | ≤ 0.2
184 | WVDS | ≤ 0.2
185 | AHFS | ≤ 0.2
186 | LYGY | ≤ 0.2
187 | AEPV | ≤ 0.2
188 | AFQC | ≤ 0.2
189 | FNTR | ≤ 0.2
190 | TSVK | ≤ 0.2
191 | RQCN | ≤ 0.2
192 | MLTV | ≤ 0.2
193 | KHVG | ≤ 0.2
194 | KKLP | ≤ 0.2
195 | MTCP | ≤ 0.2
